pKi: −log10 of the molar value.

One test deals with T1, hCRTH2 (Homo sapiens, UniProt Q9Y5Y4).
T1 sequence (Q9Y5Y4 1-395): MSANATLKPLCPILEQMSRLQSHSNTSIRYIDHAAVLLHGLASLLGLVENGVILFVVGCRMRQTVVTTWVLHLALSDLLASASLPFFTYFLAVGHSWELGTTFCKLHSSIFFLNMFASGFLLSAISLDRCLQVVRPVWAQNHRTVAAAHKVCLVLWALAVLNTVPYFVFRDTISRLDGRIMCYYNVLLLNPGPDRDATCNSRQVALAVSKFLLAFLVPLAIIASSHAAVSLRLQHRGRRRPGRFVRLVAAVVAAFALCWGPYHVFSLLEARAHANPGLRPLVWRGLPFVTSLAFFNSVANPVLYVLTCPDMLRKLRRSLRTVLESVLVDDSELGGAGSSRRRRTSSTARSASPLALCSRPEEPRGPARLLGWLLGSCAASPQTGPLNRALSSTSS
Nature of the test: biochemical. The note with it: Ki (nM), Table A; [3H]PGD2 competition, HEK-hCRTH2 membranes.
The term Ki denotes the equilibrium dissociation constant of an inhibitor or competing ligand from its target. Read a high Ki as lower affinity. In turn, `O=C(O)CCC(=O)N(C1CC1)[C@@H]1c2ccc(Cl)cc2N(C(=O)c2ccc(OC(F)(F)F)cc2)[C@@H]2CCC[C@@H]21` (racemic) [17CG, 4-[[cis-6-chloro-2,3,3a,4,9,9a-hexahydro-4-[4-(trifluoromethoxy)benzoyl]-1H-cyclopenta[b]quinolin-9-yl]cyclopropylamino]-4-oxobutanoic acid] displayed a Ki of 5.1 to 20 nM.

Regarding `CC1(C)C[C@@H]2[C@H](C1)N(C(=O)c1ccc(OC(F)(F)F)cc1)c1ccccc1[C@@H]2N(C(=O)CCC(=O)O)C1CC1` (racemic) [compound 20, 4-[Cyclopropyl[cis,cis-2,3,3a,4,9,9a-hexahydro-2,2-dimethyl-4-[4-(trifluoromethoxy)benzoyl]-1H-cyclopenta[b]quinolin-9-yl]amino]-4-oxobutanoic acid], the Ki lay within 20.1 to 200 nM. Same read-out and setting: to `CCc1ccc(C(=O)N2c3cc(Cl)ccc3C(N(C(=O)CCC(=O)O)C3CCC3)C3CCCC32)cc1` (single isomer, unassigned) [17CQ, 4-[[cis, cis-6-chloro-4-(4-ethylbenzoyl)-2,3,3a,4,9,9a-hexahydro-1H-cyclopenta[b]quinolin-9-yl]cyclobutylamino]-4-oxobutanoic acid] belongs 1 to 5 nM. On the same count and under the same terms, next, `O=C(O)CCC(=O)N(C1CC1)C1c2ccc(Cl)cc2N(C(=O)c2ccc(OC(F)(F)F)cc2)C2CCCC21` (single isomer, unassigned) [17CT, 4-[[cis, cis-6-chloro-2,3,3a,4,9,9a-hexahydro-4-[4-(trifluoromethoxy)benzoyl]-1H-cyclopenta[b]quinolin-9-yl]cyclopropylamino]-4-oxobutanoic acid]: 1 to 5 nM; `O=C(O)COC(=O)N(C1CC1)[C@@H]1c2ccccc2N(C(=O)c2ccc(F)cc2)[C@@H]2CC[C@@H]21` (single isomer, unassigned) [32i, [[[cyclopropyl[cis,cis-3-(4-fluorobenzoyl)-1,2,2a,3,8,8a-hexahydrocyclobuta[b]quinolin-8-yl]amino]carbonyl]oxy]acetic acid]: 1 to 5 nM. On the same count and under the same terms, next, `[2H][C@@]1(N(CCCC(=O)O)C2CC2)c2ccccc2N(C(=O)OCc2ccccc2)[C@@H]2CCC[C@@H]21` (single isomer, unassigned) [compound 43, 4-(Phenylmethyl) deuterated-cis,cis-9-[(3-carboxypropyl)cyclopropylamino]-1,2,3,3a,9,9a-hexahydro-4H-cyclopenta[b]quinoline-4-carboxylate-(9D)]: 5.1 to 20 nM. For the compound `N#Cc1ccc2c(c1)C(N(C(=O)CCC(=O)O)C1CC1)C1CCCC1N2C(=O)c1ccc(OC(F)(F)F)cc1` (single isomer, unassigned) [compound 50, 4-[[cis,cis-7-cyano-2,3,3a,4,9,9a-hexahydro-4-[4-(trifluoromethoxy)benzoyl]-1H-cyclopenta[b]quinolin-9-yl]cyclopropylamino]-4-oxobutanoic acid], the Ki was 20.1 to 200 nM. On the same count and under the same terms, next, `O=C(O)CCC(=O)N(C1CC1)C1c2cc(Cl)c(Cl)cc2N(C(=O)c2ccc(OC(F)(F)F)cc2)C2CCC21` (single isomer, unassigned) [compound 121, 4-[cyclopropyl[cis,cis-5,6-dichloro-1,2,2a,3,8,8a-hexahydro-3-[4-(trifluoromethoxy)benzoyl]cyclobuta[b]quinolin-8-yl]amino]-4-oxobutanoic acid]: 1 to 5 nM.

The target in another test is T1, hCRTH2.
Experiment: not given
To be noted: Table A; [3H]PGD2 competition, HEK-hCRTH2 membranes.
One may read the pKi as the Ki on a negative log10 scale, so that one unit is a factor of ten. Read a high pKi as a small Ki. As for “4-((cis,cis-3- (benzyloxycarbonyl)-5,6- difluoro-1,2,2a,3,8,8a- hexahydrocyclobuta[b]quin- olin-8- yl)(cyclopropyl)amino) butanoic acid [compound 117]”, the pKi is 8.30 to 9.00. On the same count and under the same terms, next, `CC12CCC1N(C(=O)c1ccc(OC(F)(F)F)cc1)c1ccccc1C2N(C(=O)CCC(=O)O)C1CC1` (single isomer, unassigned) [compound 158, 4-(cyclopropyl(cis,cis-8a-methyl-3-(4-(trifluoromethoxy)benzoyl)-1,2,2a,3,8,8a-hexahydrocyclobuta[b]quin-olin-8-yl)amino)-4-oxobutanoic acid]: 6.70 to 7.70; `CCN(C(=O)[C@H](C)CC(=O)O)C1c2ccccc2N(C(=O)OCc2ccccc2)C2CCCC12` (stereo in doubt) [compound 104, 4-(phenylmethyl)cis,cis-9-[(3-carboxy-2(R)-methyl-1-oxopropyl)ethylamino]-1,2,3,3a,9,9a-hexahydro-4H-cyclopenta[b]quinoline-4-carboxylate]: 5.12 to 6.70.

The record behind these values is US20140128367A1, “CYCLOALKYL-FUSED TETRAHYDROQUINOLINES AS CRTH2 RECEPTOR MODULATORS” (Merck Sharp & Dohme Corp., priority 2011, published 2014).
